From PubChem BioAssay AID686978 (National Center for Advancing Translational Sciences (NCATS), 2013)
“And” between values parts separate entries of the source, which are not always exact repeats. Identical values can stand only once. The whole screen tested about 420,000 compounds, of which about 64,000 (15%) were called active. Inconclusive results, whose numbers are uncertain, are shown with a selection of clear calls. The call rests on the fitted dose curve; in most records, active means well fitted inhibition curve with a large enough effect; inconclusive means small, poorly fitted or top-dose-only effect; inactive means flat fitted curve, though single readings scatter. Potencies beside an inconclusive call are fits to weak or partial responses and may not hold up. Square brackets hold non-standard residues; d marks the D form. Peptide text beside a SMILES is read from it. ξ: configuration not given here. ξLac(3-iPr) = CC(C)CC(O)C(=O)O; NMeV = CN[CH](C(=O)O)C(C)C; NMeA = CN[CH](C)C(=O)O; βAla = NCCC(=O)O

Assay: qHTS for Inhibitors of human tyrosyl-DNA phosphodiesterase 1 (TDP1): qHTS in cells in absence of CPT; further: nearly all actives have a fitted effect of over 55% in size
Conditions: DT40 Tdp1-/- hTDP1 cells, no CPT, ATP luminescence, 48 h; activity change, negative = growth inhibition: at 46.2 µM (top of the series) unless noted
Method in brief: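 Cells were dispensed at 400 per well, compounds added by pin tool, plates incubated ≥48 hr at 37 °C, then CellTiter-Glo added for 30 min at room temperature before luminescence reading. Line: DT40 Tdp1-/- complemented with hTDP1; camptothecin omitted.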
On the % scale 0 is the no-effect control and ±100 the full control effect; potency means the concentration at half of the fitted maximal effect; tags describe the fitted curve by direction and shape.

Q: Which Potency does the source give for COC(=O)C1=C(c2ccc3ccccc3c2)C[C@@H]2CC[C@H]1N2C(=O)NCC1CC1 here?
A: active: 9.2 µM

Q: Which Potency does the source give for COc1cc([N+](=O)[O-])c2nc(C)ccc2c1[N+](=O)[O-] here?
A: active: 10.3 µM

Q: Which Potency does the source give for Cc1c(C=C2C(=O)N(C)C(=S)N(C)C2=O)c2ccccc2n1CC(=O)NCC1CCCO1 (stereo not given) here?
A: inconclusive: 20.6 µM [inhibitor, single point]

Q: With CN(C)CCCOc1nn(Cc2ccccc2)c2ccccc12 as the compound, how does the Potency read?
A: active: 23.1 µM

Q: With CCc1c(C)nc(N)nc1N1N=C1SC as the compound, how does the Potency read?
A: inactive

Q: For CC[C@@H]1CN2CCc3cc(OC)c(OC)cc3[C@@H]2C[C@@H]1C[C@H]1NCCc2cc(OC)c(OC)cc21, which Potency is on record?
A: active: 0.0335 µM

Q: Which Potency does the source give for CCC1CN1P(=O)(N1CCCC1)N1CC1CC (stereo not given) here?
A: inconclusive: 18.4 µM [inhibitor, single point]

Q: With CN(C)c1ccc(C=C2C(=O)NC(=S)NC2=O)cc1 as the compound, how does the Potency read?
A: active: 5.62 µM and active: 16.4 µM

Q: With COC(=O)C1=C(c2cccc(OCc3ccccc3)c2)C[C@@H]2CC[C@H]1N2C(=O)NCc1ccc(F)cc1 as the compound, how does the Potency read?
A: inconclusive: 23.1 µM [inhibitor, single point]

Q: With Cc1c(CCC(=O)N2CCCCC2)c(=O)oc2cc3occ(C(C)(C)C)c3cc12 as the compound, how does the Potency read?
A: active: 11.6 µM

Q: With O=C(c1cc2nc(-c3ccccc3)cc(-c3ccccc3)n2n1)N1CCC2(CC1)OCCO2 as the compound, how does the Potency read?
A: active: 23.1 µM

Q: Which Potency does the source give for CCOP(=O)(OCC)C(NC(=O)c1cccc2ccccc12)C(Cl)(Cl)Cl (stereo not given) here?
A: inactive

Q: For COc1ccc(-n2nnnc2C(c2ccccc2)N2CCC3(CC2)C(=O)NCN3c2ccccc2)cc1 (stereo not given), which Potency is on record?
A: inconclusive: 25.9 µM [inhibitor, single point]

Q: Which Potency does the source give for O=c1[nH]cc(F)c(=O)[nH]1 here?
A: active: 15 µM and active: 16.4 µM

Q: For O=C(Nc1ccc(Br)cc1C(=O)c1ccccc1Cl)c1ccc(Br)cc1, which Potency is on record?
A: inactive

Q: Which Potency does the source give for CC(C)n1c(N2CCN(S(=O)(=O)c3cccc([N+](=O)[O-])c3)CC2)nc2ccccc21 here?
A: active: 11.6 µM

Q: For CC(C)(C)c1ccc(S(=O)(=O)Nc2ccc(O)c(Sc3nc4ccccc4s3)c2)cc1, which Potency is on record?
A: inconclusive: 16.4 µM [inhibitor, single point]

Q: With CCOC(=O)CNC(=O)N1c2ccccc2Sc2ccccc21 as the compound, how does the Potency read?
A: inconclusive: 18.4 µM [inhibitor, single point]

Q: With Cc1ccc(CNC(=O)C(=O)NCC(c2cccnc2)N2CCN(c3ccc(F)cc3)CC2)cc1 (stereo not given) as the compound, how does the Potency read?
A: active: 3.26 µM

Q: Which activity change, negative = growth inhibition does the source give for O=c1c2ccccc2[nH]c(=S)n1-c1cccc(Cl)c1 here?
A: inconclusive: -32.8% [inhibitor]

Q: Which Potency does the source give for CN(C)CCN=Cc1c(O)n(-c2cccc3ccccc23)c(=O)[nH]c1=O here?
A: inactive

Q: For CCCC1=Nc2cc(C(=O)NCCc3ccc(OCC)cc3)ccc2Sc2ccccc21, which Potency is on record?
A: active: 20.6 µM

Q: Which Potency does the source give for COc1ccc(CNC(=O)Cn2c(=O)nc(-c3ccccc3F)c3cc(Cl)ccc32)cc1 here?
A: active: 2.06 µM

Q: For COC(=O)C1=C(c2ccc(-c3ccccc3)c(F)c2)C[C@@H]2CC[C@H]1N2C(=O)NCCNC(C)=O, which Potency is on record?
A: inconclusive: 20.6 µM [inhibitor, single point]

Q: Which Potency does the source give for O=C(NC(=S)N1C[C@H]2C[C@H](C1)c1cccc(=O)n1C2)c1ccc(Cl)cc1 here?
A: inactive

Q: Which Potency does the source give for O=C1NC(=O)C(=Cc2ccccc2OCCOc2ccc([N+](=O)[O-])cc2)C(=O)N1 here?
A: inconclusive: 18.4 µM [inhibitor, single point]

Q: Which Potency does the source give for O=C(c1ccc(C(F)(F)F)cc1)C1CCCN(Cc2ccncc2)C1 (stereo not given) here?
A: active: 10.3 µM

Q: Which Potency does the source give for CCN1c2nc3ccccn3c(=O)c2CC2(C(=O)N(C)C(=O)N(C)C2=O)C1C (stereo not given) here?
A: inactive

Q: With COc1ccc2c(c1)C1(C)CCN(C)CC(C1)C2O (stereo not given) as the compound, how does the Potency read?
A: inconclusive: 0.366 µM [inhibitor, partial curve, poor fit]

Q: Which Potency does the source give for Cc1ccccc1-c1nc(CN2C(=O)CN=C(c3ccccc3)c3ccccc32)c(C)o1 here?
A: inactive

Q: For CCn1c(O)c(C=NCCc2c[nH]c3ccccc23)c(=O)[nH]c1=O, which Potency is on record?
A: inactive

Q: With O=C(CN1CCN(S(=O)(=O)c2cc(Br)ccc2Br)CC1)NCc1ccccc1Cl as the compound, how does the Potency read?
A: inconclusive: 25.9 µM [inhibitor, single point]

Q: Which Potency does the source give for CCCC[C@@H](C)C[C@@H](C)C(=O)N(C)[C@@H](CC(C)C)C(=O)N[C@H](C(=O)N(C)[C@H](C(=O)N1C[C@@H](O)C[C@H]1C(=O)N1C(=O)C=C[C@@H]1C)C(C)C)C(C)OC(C)=O (stereo not given in full) here?
A: active: 0.0065 µM

Q: With CC(=O)OC[C@]12C[C@H](OC(=O)CC(C)C)C(C)=C[C@H]1O[C@H]1[C@H](O)[C@@H](OC(C)=O)[C@@]2(C)[C@]12CO2 as the compound, how does the Potency read?
A: active: 0.0092 µM

Q: For CC(N)Cc1c[nH]c2cc3c(cc12)OCCO3 (stereo not given), which Potency is on record?
A: inconclusive: 25.9 µM [inhibitor, partial curve, poor fit]

Q: Which Potency does the source give for Cc1cc(/C=C2\C(=O)NC(=O)N(c3ccc(Cl)cc3)C2=O)c(C)n1C here?
A: inconclusive: 18.4 µM [inhibitor, single point]

Q: With COc1ccccc1-c1nn2c(=O)cc(CN3CCN(C(=O)COc4ccccc4Cl)CC3)nc2s1 as the compound, how does the Potency read?
A: active: 20.6 µM

Q: Which Potency does the source give for CCc1ccc(-n2nc(C)c3c2NC(=O)CSC3c2ccc(C(=O)OC)cc2)cc1 (stereo not given) here?
A: active: 13 µM

Q: Which activity change, negative = growth inhibition does the source give for CC1CCSP(=O)(Oc2ccccc2)O1 (stereo not given) here?
A: inconclusive: -37.6% [inhibitor]

Q: With CCC(=O)[C@@H](C)[C@@H](O)[C@H](C)C[C@@H](C)C1OC(=O)C[C@@]2(O)CC=C(C)C(O2)C(C)=CCCC[C@H](O[C@H]2C[C@@H](OC(N)=O)[C@H](O)[C@@H](C)O2)C=C[C@H](C)C[C@H]1C (stereo not given in full) as the compound, how does the Potency read?
A: active: 0.517 µM

Q: Which Potency does the source give for CCN(CC)C(=O)c1ccc(NC(=O)COc2ccc(-c3nn(C)c(=O)c4ccccc34)cc2)cc1 here?
A: inconclusive: 25.9 µM [inhibitor, single point] and inconclusive: 20.6 µM [inhibitor, single point]

Q: For CCCCCCC(=O)O[C@H]1CC[C@H]2[C@@H]3CCc4cc(O)ccc4[C@H]3CC[C@]12C, which Potency is on record?
A: inconclusive: 21.1 µM [inhibitor, single point]

Q: With CCCCCn1c(CN2CCN(C(=O)OCC)CC2)nc2c1c(=O)n(C)c(=O)n2C as the compound, how does the Potency read?
A: inconclusive: 29.1 µM [inhibitor, single point]

Q: Which Potency does the source give for COc1cc2[nH]c(=O)n(-c3cccc(Cl)c3)c(=O)c2cc1OC here?
A: inactive

Q: For C1CC[C@H]([C@@]23C[C@H](C[C@H]4CCCN[C@H]42)[C@@H]2CCCCN2C3)NC1, which activity change, negative = growth inhibition is on record?
A: inactive: -7.17% [at 9.04 µM]

Q: For CCC(C)C1NC(=O)C2CCCN2C(=O)C(CC(C)C)OC(=O)CCNC(=O)C(C)N(C)C(=O)C(C(C)C)N(C)C1=O (stereo not given) (cyclo([ξLac(3-iPr)]PI[NMeV][NMeA][βAla]); configuration not given here), which Potency is on record?
A: active: 4.11 µM

Q: With NC(=O)OCCSc1nnc(-c2cccc(C(N)=S)c2)o1 as the compound, how does the Potency read?
A: inconclusive: 23.1 µM [inhibitor, partial curve]

Q: Which Potency does the source give for CC1(C)Cc2c(C#N)c(N3CCNCC3)nc(-c3ccco3)c2CS1 here?
A: inconclusive: 18.4 µM [inhibitor, single point]

Q: With CCN(CC)P(=O)(Oc1ccccc1)Oc1ccccc1 as the compound, how does the Potency read?
A: inconclusive: 10.3 µM [inhibitor, partial curve]

Q: For CC(C)OP(=O)(OC(C)C)C(O)c1ccc(Br)cc1 (stereo not given), which Potency is on record?
A: inconclusive: 23.1 µM [inhibitor, single point]

Q: With NC(=O)Cn1cc(C(=O)c2ccccc2F)c2ccccc21 as the compound, how does the Potency read?
A: inactive

Q: Which Potency does the source give for C=CCn1c(O)c(C(CC)=Nc2cccc(C(F)(F)F)c2)c(=O)[nH]c1=O here?
A: inactive

Q: For O=C1NC(=S)NC(=O)C1Cc1ccccc1O, which Potency is on record?
A: inactive

Q: With CCCCC(=O)OCC(=O)[C@]1(O)Cc2c(O)c3c(c(O)c2[C@@H](O[C@H]2C[C@H](NC(=O)C(F)(F)F)[C@H](O)[C@H](C)O2)C1)C(=O)c1c(OC)cccc1C3=O as the compound, how does the Potency read?
A: active: 1.33 µM

Q: Which Potency does the source give for Cc1cc(NC(=O)CCl)on1 here?
A: active: 9.2 µM

Q: With CNC(=O)COC(=O)c1ccc(-c2nc3ccccc3s2)s1 as the compound, how does the Potency read?
A: inconclusive: 0.58 µM [inhibitor, full curve, poor fit]

Q: With C=CCn1c(O)c(C=NCCN(C)C)c(=O)[nH]c1=O as the compound, how does the Potency read?
A: inactive

Q: For COc1ccc(Cl)cc1C(=O)C1CCCN(Cc2cnc(C)s2)C1 (stereo not given), which Potency is on record?
A: inconclusive: 18.4 µM [inhibitor, single point]

Q: Which Potency does the source give for Cn1cc(C(=O)Cc2ccccc2)c2ccccc21 here?
A: inconclusive: 29.1 µM [inhibitor, single point]

Q: With c1cnc(N2CC3(CCNCC3)C2)nc1 as the compound, how does the Potency read?
A: inactive

Q: Which Potency does the source give for Cc1nc2cnc(N3CCNCC3)nc2n(C)c1=O here?
A: inactive

Q: Which Potency does the source give for Cc1ccc2c(=O)n(-c3cccc(Cl)c3)c(=O)[nH]c2c1 here?
A: inconclusive: 29.1 µM [inhibitor, single point]

Q: For OC(c1ccc(F)cc1)C(c1ccccc1)N1CCOCC1 (stereo not given), which Potency is on record?
A: inactive

Q: With Cc1cc(C(=O)Cn2nnc(-c3ccc(Cl)cc3)n2)c(C)n1-c1ccccc1 as the compound, how does the Potency read?
A: inconclusive: 29.1 µM [inhibitor, single point]

Q: With Cc1ccc(NC(=S)NC2CC3CCC(C2)N3Cc2ccco2)cc1C (stereo not given) as the compound, how does the Potency read?
A: inconclusive: 32.6 µM [inhibitor, single point]

Q: Which Potency does the source give for CCOc1ccc(N(C(C)C(=O)Nc2cc(Cl)ccc2OC)S(C)(=O)=O)cc1 (stereo not given) here?
A: active: 0.517 µM

Q: For O=C(C1CCN(S(=O)(=O)c2ccc(Br)s2)CC1)N1CCN(c2ccccc2)CC1, which Potency is on record?
A: active: 20.6 µM

Q: With CC(=O)c1cn(Cc2ccc(F)cc2)c2ccccc12 as the compound, how does the Potency read?
A: active: 18.4 µM

Q: For O=c1[nH]c2ccccc2n1C1CCN(C(c2nnnn2Cc2ccccc2)C2CC2)CC1 (stereo not given), which Potency is on record?
A: active: 20.6 µM

Q: Which Potency does the source give for Cc1cc(N2CCOCC2)nc2ccc(NC(=O)CCC(=O)N3CCC4(CC3)OCCO4)cc12 here?
A: inactive
